Test results published in ChEMBL document CHEMBL1157539, “Thousands of chemical starting points for antimalarial lead identification” (Nature, 2010).
In all, about 13,000 compounds were measured (“IFI”: median about 4, highest 2% from about 17 on). The list shows a part of the results.

Assay: GSK_TCMDC: Inhibition Frequency Index (IFI). The number of non-kinase HTS assays where a compound showed > 50 % inhibition, expressed as a percentage of the number of such assays in which the compound was tested (-0 is zero)
Type: functional

Structure (SMILES) | IFI [%]
COc1cc(C(=O)N2N=C(c3c(-c4ccccc4)c4cc(Br)ccc4[nH]c3=O)CC2c2cccc([N+](=O)[O-])c2)cc(OC)c1OC (stereo not drawn) | 1.54
COc1ccccc1C1CCN(C2CCC(NC(=O)/C=C/c3cccc(Cl)c3F)CC2)CC1 (stereo not drawn) | 8.33
O=C(Nc1ccccc1)N(Cc1cccc(-c2ccc(CNC3CCCC3)cc2)c1)C1CCN(Cc2ccccc2)CC1 | 10.6
O=C(Nc1ccc(OC2CCN(Cc3ccc(F)cc3)C2)cc1)c1cccs1 (stereo not drawn) | 3.28
CNC(=O)c1cnc(Nc2ccc(N3CCOCC3)cc2)nc1Nc1cccc(OC)c1 | 3.73
CCOc1ccccc1C1CCN(CCCCNC(=O)c2ccc(NC(=O)c3ccc(Cl)cc3)cc2)CC1 | 2.75
O=C(/C=C/c1cc([N+](=O)[O-])ccc1Cl)N1CCC(CCN2CCC(c3c[nH]c4ccccc34)CC2)CC1 | 4.51
COc1ccc(-c2ccc(CNCc3ccccc3)cc2)cc1S(=O)(=O)NCCN1CCCC1 | 4.63
Cc1ccccc1NC(=S)NC1CCN(CCCCCNC(=O)/C=C/c2ccc(Cl)c(Cl)c2)CC1 | 7.09
CCCNC(=O)c1ccnc(-c2ccc(CNC3Cc4ccccc4C3)cc2)c1 | 3.28
COc1ccccc1CCC(C)(C)NC(=O)CC(CCc1ccccc1)Nc1ccc(C#N)c2ccccc12 (stereo not drawn) | 1.9
COC(=O)c1ccc(CC(C)NCC(O)c2ccc(C(O)CNC(C)Cc3ccc(C(=O)OC)cc3)cc2)cc1 (stereo not drawn) | 5.67
CN(CCc1ccccn1)c1cccc2c1nc(-c1cccnc1)n2CCNCc1ccccc1 | 1.35
O=C(NC1CCN(CCN2CCC(c3c[nH]c4ccccc34)CC2)CC1)c1ccc(-c2ccc(C(F)(F)F)cc2)cc1 | 11.6
FC(F)(F)c1ccc2[nH]c(-c3cccc(-c4ccc(CNCC5CCCO5)cc4)c3)nc2c1 (stereo not drawn) | 5.88
COc1ccc(Cl)cc1-c1nc(C(=O)NCCN2CCCCC2)c(C)s1 | 1.33
O=C(Nc1cccc(CN2CCCN(Cc3cccc(O)c3)CC2)c1)c1ccc(-c2ccccc2)cc1 | 6.71
COc1ccc2nccc([C@@H](O)CN3CCC(NCc4cc5cccc(OC)c5o4)CC3)c2c1 | 1.46
CC(Cc1ccc(NS(=O)(=O)c2ccc(CC(C)NCCc3cccc(Cl)c3)cc2)cc1)NCCc1cccc(Cl)c1 (stereo not drawn) | 8.28
CCCOC(=O)c1ccc(OCCCON2C(=N)N=C(N)NC2(C)C)cc1 | 3.85
Cc1nnsc1C(=O)Nc1cccc(-c2cccc(-c3nc4cc(C(F)(F)F)ccc4[nH]3)c2)c1 | 9.91
Cc1cc(N[C@@H](CC(C)C)C(=O)NCc2cccs2)nc(NCCc2cccs2)n1 | 4.55
Cc1cc(N2CCCC2)nc(NC(=N)Nc2cccc(C(F)(F)F)c2)n1 | 5.3
